These are yes or no findings as the source states them, for the method shown. Binding seen in cells or lysates may run through a third protein. Some results given as binding are weak or reduced against the parent protein; the word gives no strength.
T1: QQS-11-59 (the 49 C-terminal aa of QQS) (Arabidopsis thaliana) (UniProt Q3E7K4)
T1 sequence: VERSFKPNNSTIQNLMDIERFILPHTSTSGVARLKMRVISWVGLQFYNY

T2: QQS-41-59 (the 19 C-terminal aa of QQS) (Arabidopsis thaliana) (UniProt Q3E7K4)
T2 sequence: VARLKMRVISWVGLQFYNY

T3: QQS-1-12 (the 12 N-terminal aa of QQS) (Arabidopsis thaliana) (UniProt Q3E7K4)
T3 sequence: MKTNREQEIYVE

T4: N-terminal fragment of human NF-YC, aa 1-145 (HsNF-YC-1-145) (human) (UniProt Q13952)
T4 sequence: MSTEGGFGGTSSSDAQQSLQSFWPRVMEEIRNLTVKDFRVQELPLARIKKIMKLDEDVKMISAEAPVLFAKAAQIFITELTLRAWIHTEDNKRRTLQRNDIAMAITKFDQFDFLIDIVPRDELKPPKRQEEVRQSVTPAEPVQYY

T5: Arabidopsis Nuclear Factor Y subunit C4 (AtNF-YC4) (Arabidopsis thaliana) (UniProt Q9FMV5)
T5 sequence: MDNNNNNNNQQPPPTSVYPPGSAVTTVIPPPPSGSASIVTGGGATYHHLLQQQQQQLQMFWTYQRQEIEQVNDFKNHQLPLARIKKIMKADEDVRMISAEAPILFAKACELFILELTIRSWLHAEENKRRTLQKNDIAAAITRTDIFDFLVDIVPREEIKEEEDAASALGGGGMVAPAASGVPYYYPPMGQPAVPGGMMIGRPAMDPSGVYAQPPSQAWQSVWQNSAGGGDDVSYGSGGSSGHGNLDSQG


Tests used:
[1] = molecular target: T1, QQS-11-59 (the 49 C-terminal aa of QQS) (Arabidopsis thaliana); experiment: pull-down; reciprocal GST pull-down; GST-QQS fragments bound on beads as bait, NF-YC proteins as prey
[2] = molecular target: T2, QQS-41-59 (the 19 C-terminal aa of QQS) (Arabidopsis thaliana); experiment: as above
[3] = molecular target: T3, QQS-1-12 (the 12 N-terminal aa of QQS) (Arabidopsis thaliana); experiment: as above
[4] = molecular target: T4, N-terminal fragment of human NF-YC, aa 1-145 (HsNF-YC-1-145) (human); experiment: pull-down; MBP pull-down; MBP-NF-YC fragments as bait, QQS fragments as prey
[5] = molecular target: T5, Arabidopsis Nuclear Factor Y subunit C4 (AtNF-YC4) (Arabidopsis thaliana); experiment: as above

Binder	binding [1]	binding [2]	binding [3]	binding [4]	binding [5]
Arabidopsis Nuclear Factor Y subunit C4 (AtNF-YC4) (protein, UniProt Q9FMV5 1-250) MDNNNNNNNQQPPPTSVYPPGSAVTTVIPPPPSGSASIVTGGGATYHHLLQQQQQQLQMFWTYQRQEIEQVNDFKNHQLPLARIKKIMKADEDVRMISAEAPILFAKACELFILELTIRSWLHAEENKRRTLQKNDIAAAITRTDIFDFLVDIVPREEIKEEEDAASALGGGGMVAPAASGVPYYYPPMGQPAVPGGMMIGRPAMDPSGVYAQPPSQAWQSVWQNSAGGGDDVSYGSGGSSGHGNLDSQG	binds	binds	–	–	–
human NF-YC, full length (HsNF-YC) (protein, UniProt Q13952 1-458) MSTEGGFGGTSSSDAQQSLQSFWPRVMEEIRNLTVKDFRVQELPLARIKKIMKLDEDVKMISAEAPVLFAKAAQIFITELTLRAWIHTEDNKRRTLQRNDIAMAITKFDQFDFLIDIVPRDELKPPKRQEEVRQSVTPAEPVQYYFTLAQQPTAVQVQGQQQGQQTTSSTTTIQPGQIIIAQPQQGQTTPVTMQVGEGQQVQIVQAQPQGQAQQAQSGTGQTMQVMQQIITNTGEIQQIPVQLNAGQLQYIRLAQPVSGTQVVQGQIQTLATNAQQGQRNASQGKPRRCLKETLQITQTEVQQGQQQFSQFTDGQRNSVQQARVSELTGEAEPREVKATGNSTPCTSSLPTTHPPSHRAGASCVCCSQPQQSSTSPPPSDALQWVVVEVSGTPNQLETHRELHAPLPGMTSLSPLHPSQQLYQIQQVTMPAGQDLAQPMFIQSANQPSDGQAPQVTGD	binds	binds	no binding	–	–
N-terminal fragment of human NF-YC, aa 1-145 (HsNF-YC-1-145) (domain or fragment, UniProt Q13952 1-145) MSTEGGFGGTSSSDAQQSLQSFWPRVMEEIRNLTVKDFRVQELPLARIKKIMKLDEDVKMISAEAPVLFAKAAQIFITELTLRAWIHTEDNKRRTLQRNDIAMAITKFDQFDFLIDIVPRDELKPPKRQEEVRQSVTPAEPVQYY	binds	binds	–	–	–
VERSFKPNNSTIQNLMDIERFILPHTSTSGVARLKMRVISWVGLQFYNY (domain or fragment, UniProt Q3E7K4 11-59) [QQS-11-59 (the 49 C-terminal aa of QQS)]	–	–	–	binds	binds
VARLKMRVISWVGLQFYNY (domain or fragment, UniProt Q3E7K4 41-59) [QQS-41-59 (the 19 C-terminal aa of QQS)]	–	–	–	binds	binds
RSFKPNNSTIQNLMDIERFILPHTSTSGVARLKMR (domain or fragment, UniProt Q3E7K4 13-47) [QQS-13-47 (the middle 35 aa of QQS)]	–	–	–	–	no binding
VISWVGLQFYNY (domain or fragment, UniProt Q3E7K4 48-59) [QQS-48-59 (the 12 C-terminal aa of QQS)]	–	–	–	–	no binding

— paper PMC6330549
